From patent US11366114B2, “Genetically encoded fluorescent sensors for detecting ligand bias and intracellular signaling through cAMP pathways” (MONTANA MOLECULAR LLC, priority 2013, dated 2022) come the findings set out here.

To fix the notation:
B1: Library 1 G2: cAMP sensor; SEQID 22 in Table 1, SEQ ID NO: 23 in Table 3 (protein)
chain: MVAAHAAHSSSSAEWIACLDKRPLERSSEDVDIIFTRLKEVKAFEKFHPNLLHQICLCGYYENLEKGITLFRQGDIGTNWYAVLAGSLDVKVSETSSHQDAVTICTLGIGTAFGESILDNTPRHATIVTRESSELLRIEQKDFKALWEKYRQYMAGLLAPPYGVMETGSNNDRIPDKENTPLIEPHVPLRPANTITKVPSEKILRAGKILRNAILSRAPHMIRDRKYHLKTYRQCCVGTELVDWMMQQTPCVHSRTQAVGMWQVLLEDGVLNHVDQEHHFQDKYLFYRFLDDEHEDAPLPTEEEKKECDEELQDTMLLLSQMGPDAHMRMILRKPPGQRTVDDLEIIYEELLHIKALSHLSTTVKRELAGVLIFESHAKGGTVLFNQGEEGTSWYIILKGSVNVVIYGKGVVCTLHEGDDFGKLALVNDAPRAASIVLREDNCHFLRVDKEDFNRILRDVLENVYIKADKQKNGIKANFKIRHNIEDGGVQLAYHYQQNTPIGDGPVLLPDNHYLSVQSILSKDPNEKRDHMVLLEFVTAAGITLGMDELYKGGTGGSMVSKGEELFTGVVPIQVELDGDVNGHKFSVSGEGEGDATYGKLTLKFICTTGKLPVPWPTLVTTLTYGVQCFSRYPDHMKQHDFFKSAMPEGYIQERTIFFKDDGNYKTRAEVKFEGDTLVNRIELKGIDFKEDGNILGHKLEYNTRTVRLKEHDQDVLVLEKVPAGNRASNQGNSQPQQKYTVMSGTPEKILEHFLETIRLEATLNEATDSVLNDFIMMHCVFMPNTQLCPALVAHYHAQPSQGTEQEKMDYALNNKRRVIRLVLQWAAMYGDLLQEDDVSMAFLEEFYVSVSDDARMIAALKEQLPELEKIVKQISEDAKAPQKKHKVLLQQFNTGDERAQKRQPIRGSDEVLFKVYCMDPTYTTIRVPVATSVKEVISAVADKLGSGEGLIIVKMSSGGEKVVLKPNDVSVFMTLTINGRLFACPREQFDSLTPLPEQEGPTVGTVGTFELMSSKDLAYQMTIYDWELFNCVHELELIYHTFGRHNFKKTTANLDLFLRRFNEIQFWVVTEICLCSQLSKRVQLLKKFIKIAAHCKEYKNLNSFFAIVMGLSNVAVSRLALTWEKLPSKFKKFYAEFESLMDPSRNHRAYRLTVAKLEPPLIPFMPLLIKDMTFTHEGNKTFIDNLVNFEKMRMIANTARTVRYYRSQPFNPDAAQANKNHQDVRSYVRQLNVIDNQRTLSQMSHRLEPRRP
B2: Library 2-1 D1: cAMP sensor; SEQID 21 in Table 1, SEQ ID NO: 22 in Table 3 (protein)
chain: MVAAHAAHSSSSAEWIACLDKRPLERSSEDVDIIFTRLKEVKAFEKFHPNLLHQICLCGYYENLEKGITLFRQGDIGTNWYAVLAGSLDVKVSETSSHQDAVTICTLGIGTAFGESILDNTPRHATIVTRESSELLRIEQKDFKALWEKYRQYMAGLLAPPYGVMETGSNNDRIPDKENTPLIEPHVPLRPANTITKVPSEKILRAGKILRNAILSRAPHMIRDRKYHLKTYRQCCVGTELVDWMMQQTPCVHSRTQAVGMWQVLLEDGVLNHVDQEHHFQDKYLFYRFLDDEHEDAPLPTEEEKKECDEELQDTMLLLSQMGPDAHMRMILRKPPGQRTVDDLEIIYEELLHIKALSHLSTTVKRELAGVLIFESHAKGGTVLFNQGEEGTSWYIILKGSVNVVIYGKGVVCTLHEGDDFGKLALVNDAPRAASIVLREDNCHFLRVDKEDFNRILRDVEANLENVYIKADKQKNGIKANFKIRHNIEDGGVQLAYHYQQNTPIGDGPVLLPDNHYLSVQSILSKDPNEKRDHMVLLEFVTAAGITLGMDELYKGGTGGSMVSKGEELFTGVVPIQVELDGDVNGHKFSVSGEGEGDATYGKLTLKFICTTGKLPVPWPTLVTTLTYGVQCFSRYPDHMKQHDFFKSAMPEGYIQERTIFFKDDGNYKTRAEVKFEGDTLVNRIELKGIDFKEDGNILGHKLEYNTRKEDFNRILRDVEANTVRLKEHDQDVLVLEKVPAGNRASNQGNSQPQQKYTVMSGTPEKILEHFLETIRLEATLNEATDSVLNDFIMMHCVFMPNTQLCPALVAHYHAQPSQGTEQEKMDYALNNKRRVIRLVLQWAAMYGDLLQEDDVSMAFLEEFYVSVSDDARMIAALKEQLPELEKIVKQISEDAKAPQKKHKVLLQQFNTGDERAQKRQPIRGSDEVLFKVYCMDPTYTTIRVPVATSVKEVISAVADKLGSGEGLIIVKMSSGGEKVVLKPNDVSVFMTLTINGRLFACPREQFDSLTPLPEQEGPTVGTVGTFELMSSKDLAYQMTIYDWELFNCVHELELIYHTFGRHNFKKTTANLDLFLRRFNEIQFWVVTEICLCSQLSKRVQLLKKFIKIAAHCKEYKNLNSFFAIVMGLSNVAVSRLALTWEKLPSKFKKFYAEFESLMDPSRNHRAYRLTVAKLEPPLIPFMPLLIKDMTFTHEGNKTFIDNLVNFEKMRMIANTARTVRYYRSQPFNPDAAQANKNHQDVRSYVRQLNVIDNQRTLSQMSHRLEPRRP
B3: Library 1 A6: cAMP sensor; SEQID 23 in Table 1, SEQ ID NO: 24 in Table 3 (protein)
chain: MVAAHAAHSSSSAEWIACLDKRPLERSSEDVDIIFTRLKEVKAFEKFHPNLLHQICLCGYYENLEKGITLFRQGDIGTNWYAVLAGSLDVKVSETSSHQDAVTICTLGIGTAFGESILDNTPRHATIVTRESSELLRIEQKDFKALWEKYRQYMAGLLAPPYGVMETGSNNDRIPDKENTPLIEPHVPLRPANTITKVPSEKILRAGKILRNAILSRAPHMIRDRKYHLKTYRQCCVGTELVDWMMQQTPCVHSRTQAVGMWQVLLEDGVLNHVDQEHHFQDKYLFYRFLDDEHEDAPLPTEEEKKECDEELQDTMLLLSQMGPDAHMRMILRKPPGQRTVDDLEIIYEELLHIKALSHLSTTVKRELAGVLIFESHAKGGTVLFNQGEEGTSWYIILKGSVNVVIYGKGVVCTLHEGDDFGKLALVNDAPRAASIVLREDNCHFLRVDKEDFNRILRMSNVYIKADKQKNGIKANFKIRHNIEDGGVQLAYHYQQNTPIGDGPVLLPDNHYLSVQSILSKDPNEKRDHMVLLEFVTAAGITLGMDELYKGGTGGSMVSKGEELFTGVVPIQVELDGDVNGHKFSVSGEGEGDATYGKLTLKFICTTGKLPVPWPTLVTTLTYGVQCFSRYPDHMKQHDFFKSAMPEGYIQERTIFFKDDGNYKTRAEVKFEGDTLVNRIELKGIDFKEDGNILGHKLEYNVSDVEANTVRLKEHDQDVLVLEKVPAGNRASNQGNSQPQQKYTVMSGTPEKILEHFLETIRLEATLNEATDSVLNDFIMMHCVFMPNTQLCPALVAHYHAQPSQGTEQEKMDYALNNKRRVIRLVLQWAAMYGDLLQEDDVSMAFLEEFYVSVSDDARMIAALKEQLPELEKIVKQISEDAKAPQKKHKVLLQQFNTGDERAQKRQPIRGSDEVLFKVYCMDPTYTTIRVPVATSVKEVISAVADKLGSGEGLIIVKMSSGGEKVVLKPNDVSVFMTLTINGRLFACPREQFDSLTPLPEQEGPTVGTVGTFELMSSKDLAYQMTIYDWELFNCVHELELIYHTFGRHNFKKTTANLDLFLRRFNEIQFWVVTEICLCSQLSKRVQLLKKFIKIAAHCKEYKNLNSFFAIVMGLSNVAVSRLALTWEKLPSKFKKFYAEFESLMDPSRNHRAYRLTVAKLEPPLIPFMPLLIKDMTFTHEGNKTFIDNLVNFEKMRMIANTARTVRYYRSQPFNPDAAQANKNHQDVRSYVRQLNVIDNQRTLSQMSHRLEPRRP
B4: Library 6-2 F1: cAMP sensor; SEQID 24 in Table 1, SEQ ID NO: 25 in Table 3 (protein)
chain: MVAAHAAHSSSSAEWIACLDKRPLERSSEDVDIIFTRLKEVKAFEKFHPNLLHQICLCGYYENLEKGITLFRQGDIGTNWYAVLAGSLDVKVSETSSHQDAVTICTLGIGTAFGESILDNTPRHATIVTRESSELLRIEQKDFKALWEKYRQYMAGLLAPPYGVMETGSNNDRIPDKENTPLIEPHVPLRPANTITKVPSEKILRAGKILRNAILSRAPHMIRDRKYHLKTYRQCCVGTELVDWMMQQTPCVHSRTQAVGMWQVLLEDGVLNHVDQEHHFQDKYLFYRFLDDEHEDAPLPTEEEKKECDEELQDTMLLLSQMGPDAHMRMILRKPPGQRTVDDLEIIYEELLHIKALSHLSTTVKRELAGVLIFESHAKGGTVLFNQGEEGTSWYIILKGSVNVVIYGKGVVCTLHEGDDFGKLALVNDAPRAASIVLREDNCHFLRVDKEDFNRILRLENVYIKADKQKNGIKANFKIRHNIEDGGVQLAYHYQQNTPIGDGPVLLPDNHYLSVQSILSKDPNEKRDHMVLLEFVTAAGITLGMDELYKGGTGGSMVSKGEELFTGVVPIQVELDGDVNGHKFSVSGEGEGDATYGKLTLKFICTTGKLPVPWPTLVTTLTYGVQCFSRYPDHMKQHDFFKSAMPEGYIQERTIFFKDDGNYKTRAEVKFEGDTLVNRIELKGIDFKEDGNILGHKLEYNTRDVEANTVRLKEHDQDVLVLEKVPAGNRASNQGNSQPQQKYTVMSGTPEKILEHFLETIRLEATLNEATDSVLNDFIMMHCVFMPNTQLCPALVAHYHAQPSQGTEQEKMDYALNNKRRVIRLVLQWAAMYGDLLQEDDVSMAFLEEFYVSVSDDARMIAALKEQLPELEKIVKQISEDAKAPQKKHKVLLQQFNTGDERAQKRQPIRGSDEVLFKVYCMDPTYTTIRVPVATSVKEVISAVADKLGSGEGLIIVKMSSGGEKVVLKPNDVSVFMTLTINGRLFACPREQFDSLTPLPEQEGPTVGTVGTFELMSSKDLAYQMTIYDWELFNCVHELELIYHTFGRHNFKKTTANLDLFLRRFNEIQFWVVTEICLCSQLSKRVQLLKKFIKIAAHCKEYKNLNSFFAIVMGLSNVAVSRLALTWEKLPSKFKKFYAEFESLMDPSRNHRAYRLTVAKLEPPLIPFMPLLIKDMTFTHEGNKTFIDNLVNFEKMRMIANTARTVRYYRSQPFNPDAAQANKNHQDVRSYVRQLNVIDNQRTLSQMSHRLEPRRP

The subject of the experiment is cAMP. As to the kind of experiment: Fluorescence response of cAMP sensors to isoproterenol in HEK 293 cells co-expressing the beta adrenergic receptor. The format is cell-based, human. The settings on record: in response to isoproternol. An outline of the steps:
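HEK 293 or HEK 293T cells were transiently co-transfected with sensor construct and beta adrenergic receptor, then imaged 24-48 h later in DPBS at 25 °C. Green fluorescence change (488/530 nm in plate reader) was recorded after isoproterenol, DMSO, forskolin or IBMX addition, background-subtracted.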
Regarding B1, the “Relative Change in Fluorescence” value stood at 33%. Under B2 stands 33%; under B3, −33%. With B4, the “Relative Change in Fluorescence” value worked out at 30%.
